# Results published in the supplement of paper PMC11417369.
# ± gives the standard deviation of the averaged measurements. Some of the results follow.
# Test system: PfAP2-I AP2 domain 3 (GST-tagged)
# Experiment: gcPBM binding intensity (ln(normalized median fluorescence intensity)); higher = stronger DNA binding
# Procedure, shortened: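 Each value is the highest Masliner-normalised natural-log median intensity across replicate spots of either orientation of a probe. The probes were primer-extended double-stranded 36-bp intergenic genomic sequences on an Agilent 4 × 180k array, alongside negative controls, exposed for 1 h to GST-tagged P. falciparum DNA-binding domains expressed in E. coli. Bound protein was picked up with Alexa488 anti-GST antibody and scanned at 488 nm.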
row,Sequence,gcPBM binding intensity (ln)
1,TATTTATAACAAAGGTTAAATTAAAACTAATCCACA [TGCATGCA_negctrl_site3],7.89 ± 0.24
2,GCCAAAATCTAATTTACACACTTATTAAATAATTAC [CACACA_site6251],7.74 ± 0.57
3,GACATAGTCATATACTGTACTTTATATTATTGTGTA [XGTACX_site6636],7.49 ± 0.46
4,TTTTTTTTTTTTTTTTGTACTTATAAAAAATTTTTT [XGTACX_site1249],8.08 ± 0.47
5,TACAGATATAAACACACACACATATATATATATATA [CACACA_site4846],9.46 ± 0.66
6,TTTTTTTTCATTGGTTGTACAATATTTATAATTCAC [XGTACX_site7036],8.24 ± 0.52
7,TTATGTAAAAAAAAAAAAAAAAAAAAAAAAAAAAAA [CACACA_negctrl_site984],8.46 ± 1.1
8,GATAAAGTACTTTATACACACAAATATTTATTTATA [CACACA_site7795],7.91 ± 0.28
9,TCTTCATATAAGAACACATGCAGATTTTTATTATTG [TGCATGCA_site682],7.79 ± 0.65
10,AAAAAAAAAAAAAAACGTACACATATTATGTTATTT [XGTACX_site5264],8.44 ± 0.5
11,CATATAATATAATTATGTACATATATAATAATATAC [XGTACX_site5278],7.64 ± 0.34
12,AAAAAAAAGTTGTATTGTACAAAAAAAAAAAAAAAA [XGTACX_site8334],8.06 ± 0.67
13,TCATAAAAACTAATACGTACTTAAAAATATGAACTT [XGTACX_site2939],7.63 ± 0.43
14,GTACAAAAAAAAATAAAATACATATATATATATATA [GTGCAC_negctrl_site364],9.51 ± 0.22
15,AAAATATTTCATATATGTACTTAAAAAAAAAAAAAA [XGTACX_site5399],8.05 ± 0.16
16,TATTATATATATGTTGACATATTTGTACACTCCACT [TGCATGCA_negctrl_site200],8.17 ± 0.31
17,GAATATATAAGATACACACACAAATTAAATATAAAA [CACACA_site2781],7.79 ± 0.57
18,AAAAAATTCATATATACACACACGCACATATATATA [CACACA_site4226],8.18 ± 0.71
19,CACTTTTCTGGAAAAATTCCCACATTTTTTTATTAA [GTGCAC_negctrl_site322],8.04 ± 0.53

row,Sequence,gcPBM binding intensity (ln)
1,AAAAAAAAAAAAAACACACACACACGCATAAATATA [CACACA_site6217],8.44 ± 0.49
2,ATTATTTAGAAATGAGCACACAAAAAGAAGAATTTT [CACACA_site7913],7.89 ± 0.71
3,TATTTATTTATTTATGCATGCATGAATAATTTTTAC [TGCATGCA_site31],8 ± 0.71
4,ATAATAATATAAAATACACACCTATTATTTTTACAA [CACACA_site6069],7.71 ± 0.6
5,ACAAGAGAAGTAATTGCACACGTTGTTTCTTTTTCT [CACACA_site35],9.07 ± 0.39
6,CCACATATACAAAACACACACACAACGTTTTAATAA [CACACA_site1978],7.92 ± 0.4
7,TCACTATAGTAATTTACACACATTTGAAGAAAATGT [CACACA_site7626],7.92 ± 0.24
8,TTATCATTTGGACACGCACACACACCGAAAAAGAAA [CACACA_site8008],8.41 ± 0.33
9,AATAATTTAAGGAATACACACAAGAAAAAAATAAGA [CACACA_site60],7.89 ± 0.73
10,TTTTTTGCTAAAAAGAGTACTAATAAAAAATTTATT [XGTACX_site5235],7.6 ± 0.51
11,TTTTTGTAATTATATTAATATATATATATATATATA [CACACA_negctrl_site198],9.08 ± 0.11
12,CATATATGTGATAACACGCACACAAATGTATAGAAT [CACACA_site2594],7.96 ± 0.57
13,GTTCATCACATATACACATGCATATTCTAATATGTA [TGCATGCA_site809],8.34 ± 0.53
14,ACATTATATAAAATATGTACATATAAAAAATTCTAT [XGTACX_site1617],7.95 ± 0.38
15,TTAATTTTTGAAGGTACACACTAATATATTAAATAT [CACACA_site4791],7.89 ± 0.54
16,TTATCCCCCTATCATTGTACATTAATACAAACTAAA [XGTACX_site5630],8.85 ± 0.12
17,AAAATGAAACAAATATGTACACATATAAATATTTCC [XGTACX_site54],7.55 ± 0.54
18,AAAACAGACAAACACACACACACATATATATATATA [CACACA_site3393],9.43 ± 0.4
19,CTTTTAATTATAAAATGTACTTAAAAATAATAATAC [XGTACX_site635],7.91 ± 0.13

row,Sequence,gcPBM binding intensity (ln)
1,ATATTTGTAATTATTAAACACACACTAATTATATAT [CACACA_site8803],7.84 ± 0.51
2,TTTTATGAAAAATGGCTTATCTGTAAAGAAGTGGAG [CACACA_negctrl_site1586],8.04 ± 0.47
3,ATAAAGAAAATATGGAGTACATTTATATCCAATATA [XGTACX_site3085],7.72 ± 0.28
4,AAATATATACTACCGATGCACTAAATATAAACACAT [GTGCAC_site9777],8.88 ± 0.5
5,AAGAATTATATATTCACACAAAAAAAAAGTAAAAGA [CACACA_site5335],7.82 ± 0.58
6,AAAAAAAAAAAAAAGAGTACATTTATTTATATATCT [XGTACX_site2381],7.93 ± 0.38
7,TGTTTAACACATGTTTCAAACAAAAAAAAAAAGACA [CACACA_negctrl_site1356],7.73 ± 0.52
8,AATATATTAAATCTTACACACTAAAAAATATGTAAC [CACACA_site4325],7.53 ± 0.57
9,TTTTAACATAGAAGTACACACATATAATCAATCATA [CACACA_site5313],7.995 ± 0.078
10,TATAATATATATATATGTACATATTATTTACATATA [XGTACX_site7312],7.71 ± 0.4
11,TTTTAAATTTTTTAAAGTACACGTCGAAAAGGTATA [XGTACX_site76],8.43 ± 0.23
12,TATTATATATATGGAAGTACAGGTATATCGTTTTTC [XGTACX_site3771],7.93 ± 0.66
13,TTTTTTTTTCGCTTTTGTACACATTTTATAGAACAG [XGTACX_site2416],8.29 ± 0.53
14,TTTTCCCTTAACCTCTGTACATATAATTTTCTTTCC [XGTACX_site4180],8.11 ± 0.73
15,AAATATTTTTTAATTGTTCACTTGGTGGATCATTAA [CACACA_negctrl_site922],9.44 ± 0.84
16,TATCCATTATTTAAAAGTACAAAAAACGATTTACAC [XGTACX_site2979],7.92 ± 0.56
17,ATTTTTTTTTTTTTTTCATGAAATTTTTTTTTTTTT [CACACA_negctrl_site1069],7.5 ± 0.57
18,TTAAAAAAAAATAAAGGTACACGGAGAAATCCTTTT [XGTACX_site7509],7.51 ± 0.76
